Test results published in PubChem BioAssay AID1345082 (National Center for Advancing Translational Sciences (NCATS), 2018).
The campaign covered roughly 94,000 compounds. About 4,000 (4.3%) were called active. Inconclusive results, whose numbers are uncertain, are shown with a selection of clear calls. Calls come from the whole dose curve; as a rule, active = well fitted inhibition curve with a large enough effect; inconclusive = small, poorly fitted or top-dose-only effect; inactive = no such curve, though single readings can be large or run the other way. Potencies of inconclusive entries are doubtful fits and often do not repeat.
% is set by controls: 0 for no effect and ±100 for the full control effect; potency is the fitted concentration of half-maximal effect; tags give direction and shape of the fitted curve.

Test: Cytotoxic Profiling in NIH 3T3 Cell Line of Diverse Libraries Using Quantitative High-Throughput Screening; note: nearly all actives have a fitted effect of over 55% in size
Conditions: NIH 3T3 viability, CellTiter-Glo ATP luminescence, 48-72 h; activity change, negative = cytotoxicity: at 96.7 µM (top of the series); series mostly up to 96.7 µM
How it was run: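 Cytotoxicity is measured as loss of cellular ATP: NIH 3T3 cells (400/well) are exposed to compound for 48 or 72 hr at 37 °C, then CellTiter-Glo luminescence is imaged after 10 min at room temperature.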
With `CC1=C[C@@H](CNCc2ccc(F)cc2)[C@H](C(C)C)C[C@H]1Cc1nnc(-c2cncn2C)o1` the Potency was inconclusive: 89.1 µM [inhibitor, partial curve, poor fit].
For `C[C@H](C(=O)N1CCSCC1)C1CC[C@@]2(C)Cc3sc(Nc4c(Cl)cccc4Cl)nc3[C@@H](C)[C@@H]2[C@H]1O` (stereo partly specified), the Potency was inconclusive: 50.1 µM [inhibitor, partial curve, poor fit].
In the case of `C[C@]1(CO)[C@H]2Cc3sc(NC(=O)c4ccco4)nc3[C@@H](CC(=O)Nc3ccccc3)[C@]2(C)CC[C@H]1O`, the Potency is reported as inconclusive: 89.1 µM [inhibitor, single point].
For `COc1ccccc1CN1CCCC(c2nn(-c3ccc(Cl)cc3)c(=O)[nH]2)C1` (stereo unspecified), the Potency was inconclusive: 50.1 µM [inhibitor, partial curve, poor fit].
In the case of `COc1ccc2c(c1)CCN=C2C[C@H]1CN(C(=O)C(=O)O)CC[C@H]1CC(=O)O`, the “activity change, negative = cytotoxicity” value is reported as inactive: -0.628% [at 174 µM].
With `O=C(Nc1ccc2c(N3CCOCC3)ncnc2c1)c1cccc(Br)c1` the Potency was inconclusive: 5.01 µM [inhibitor, full curve, poor fit].
With `COCCCNc1cc(-c2ccccc2OC)nc2c(C)noc12` the Potency was inconclusive: 39.8 µM [inhibitor, partial curve, poor fit].
In the case of `COc1ccccc1-c1cccc(C(=O)N2CCC[C@H]2C(=O)NCC2CCCCCC2)c1`, the Potency is reported as inconclusive: 39.8 µM [inhibitor, partial curve, poor fit].
For `NC(=O)[C@@H](Cc1ccccc1)NC(=O)[C@@]1(O)C[C@@H](O)[C@H](O)[C@@H](NC(=O)Cc2cccs2)C1`, the “activity change, negative = cytotoxicity” value was inactive: -11.8%.
In the case of `CCC(NC(=O)c1cc(COc2ccccc2F)[nH]n1)c1ccncc1` (stereo unspecified), the “activity change, negative = cytotoxicity” value is reported as inactive: -19.4%.
For `Cc1ccc(Cn2cc(-c3ccncc3)cc2C(=O)NCc2ccc(N(C)C)cc2)cc1`, the Potency was inconclusive: 44.7 µM [inhibitor, partial curve, poor fit].
With `COc1ccc(C(=O)N2CCCOCCNC(=O)CC2)cc1` the Potency was inconclusive: 39.8 µM [inhibitor, partial curve].
With `C[S+](=O)([O-])c1ccc(-c2cc(C(=O)NCC3CC3)nn3cccc23)cc1` the Potency was inconclusive: 50.1 µM [inhibitor, partial curve, poor fit].
With `Cc1cnc(CCNS(=O)(=O)c2ccccc2)n1CC1CC1` the “activity change, negative = cytotoxicity” value was inactive: -5.81%.
For `O=C(Cc1ccsc1)N1CC(Oc2ccccc2-c2nc(-c3ccccc3)no2)C1`, the Potency was active: 35.5 µM.
For `COc1ccc(C2Cn3nnc(C(=O)N4CCC(C(=O)NCCC5=CCCCC5)CC4)c3CO2)cc1` (stereo unspecified), the “outcome” value was “inactive”.
In the case of `CC(C)c1nc2c(c(-c3ccc(Cl)cc3)n1)CN(C(=O)c1ccccc1Cl)CC2`, the Potency is reported as inconclusive: 56.2 µM [inhibitor, partial curve, poor fit].
For `Cn1c(C(=O)NCCc2cnc[nH]2)nc2nc(-c3ccccc3)c(Cl)cc21`, the Potency was active: 28.2 µM.
In the case of `CC1(C)C(=O)N(Cc2ccccc2F)[C@H]2CN(Cc3ccc4c(c3)CCO4)C[C@H]2[S+]1(=O)[O-]`, the Potency is reported as inconclusive: 35.5 µM [inhibitor, partial curve, poor fit].
In the case of `COc1ccc(-c2cccc(C(=O)N3CCC(NC(=O)Cc4ccccc4)CC3)c2)nn1`, the Potency is reported as inconclusive: 50.1 µM [inhibitor, partial curve, poor fit].
In the case of `COc1ccc(CN2CCC3(C2)NC(=O)c2ccccc2O3)cc1` (stereo unspecified), the Potency is reported as inconclusive: 63.1 µM [inhibitor, partial curve, poor fit].
With `Cc1ccc([S+](=O)([O-])N2CCn3c(nn(-c4ccncc4)c3=O)C2)cc1` the Potency was inconclusive: 44.7 µM [inhibitor, partial curve, poor fit].
For `O=C(c1ccc(F)c(Cl)c1)N1CCC(n2cc(-c3nc(-c4ccccc4)no3)nn2)CC1`, the Potency was inconclusive: 7.94 µM [inhibitor, full curve].
In the case of `CN(Cc1ccccn1)Cc1ccccc1C(F)(F)F`, the “activity change, negative = cytotoxicity” value is reported as inactive: 4.3% [at 138 µM].
For `O=C(c1ccccc1)N1CCN(c2cc(-c3ccc(Cl)cc3)[nH]n2)CC1`, the Potency was inconclusive: 39.8 µM [inhibitor, partial curve, poor fit].
For `COCCN1C(=O)c2ccccc2C(C(=O)Nc2nc3c(s2)CCC3)C12CCCC2` (stereo unspecified), the “activity change, negative = cytotoxicity” value was inactive: -13.2%.
In the case of `O=C(NCC1Cn2cccc2C(=O)N1Cc1cccnc1)c1n[nH]c(=O)c2ccccc12` (stereo unspecified), the Potency is reported as active: 39.8 µM.
With `COCC(=O)N[C@@H]1CN(C2CCCCCC2)CC[C@@H]1CO` the “activity change, negative = cytotoxicity” value was inactive: -14.8%.
In the case of `COc1cc(F)ccc1-c1ccc2c(n1)c(=O)ncn2CCC(F)(F)F`, the Potency is reported as inconclusive: 100 µM [inhibitor, partial curve, poor fit].
In the case of `COc1ccc(CNC(=O)c2cc3c(n2C)CCN(Cc2ccc(F)cc2)C3)cc1`, the Potency is reported as inconclusive: 50.1 µM [inhibitor, partial curve, poor fit].
For `O=C(c1ccc2[nH]ccc2c1)N1CCC(Cn2cc(C3CCCC3)nn2)CC1`, the Potency was inconclusive: 44.7 µM [inhibitor, partial curve, poor fit].
With `O=C(NCc1ccc(F)cc1)c1ccc2nnc(-c3ccoc3)n2c1` the Potency was inconclusive: 56.2 µM [inhibitor, partial curve, poor fit].
For `COc1ccccc1-c1ccnc(N[C@H]2CO[C@H]3[C@@H]2OC[C@@H]3NC(=O)COc2ccccc2)n1`, the Potency was inconclusive: 39.8 µM [inhibitor, partial curve, poor fit].
With `COCCN1CC(CO)C2(CCN(C(=O)c3ccc(C(C)C)cc3)CC2)C1` (stereo unspecified) the “activity change, negative = cytotoxicity” value was inactive: -26.6%.
With `O=C(c1ccc(C(F)(F)F)cc1)N1CCC2(CN[S+](=O)([O-])c3cccnc3O2)C1` (stereo unspecified) the “activity change, negative = cytotoxicity” value was inactive: 0.22%.
For `Cc1nc(C)c(C(=O)N2CCCC(n3c(C)cnc3C3CCC3)C2)s1` (stereo unspecified), the “activity change, negative = cytotoxicity” value was inactive: -7.32%.
For `CC1=C[C@@H](CNS(=O)(=O)c2ccc(C#N)cc2)[C@H](C(C)C)C[C@H]1CC(=O)N1CCOCC1`, the “activity change, negative = cytotoxicity” value was inactive: -25.9%.
With `Cc1ccc(-c2nc(CNC(=O)C(C)(C)N)[nH]c2-c2ccccn2)cc1` the “activity change, negative = cytotoxicity” value was inactive: -2.49%.
With `CC(C)=CCN1CCNC(=O)C1CC(=O)O` (stereo unspecified) the “outcome” value was “inactive”.
In the case of `CN1CCN(C)c2cnc(-c3cnn(Cc4ccccc4)c3)cc2C1`, the “activity change, negative = cytotoxicity” value is reported as inactive: -24.3% [at 138 µM].
In the case of `CN1CC(=O)N(C2CCCNCC2)Cc2c1ncnc2N1CCCC(F)C1` (stereo unspecified), the “activity change, negative = cytotoxicity” value is reported as inactive: -4.05%.
In the case of `c1cc(-c2cc3c(ccn3Cc3ccncc3)c(N3CCOCC3)n2)cc(N2CCOCC2)c1`, the Potency is reported as active: 31.6 µM.
For `CNC(=O)[C@@H]1CNC[C@H]1c1nc(COC)no1`, the “activity change, negative = cytotoxicity” value was inactive: -0.562%.
In the case of `COc1ccc(-c2ccc3c(n2)CN(C)C(=O)CO3)cc1`, the Potency is reported as active: 100 µM.
For `O=C(c1ccc2oc(-c3ccccn3)nc2c1)N1CCOCC1`, the Potency was inconclusive: 100 µM [inhibitor, partial curve].
For `Cn1nc(C(=O)N2CCC3(CC2)CC(CO)N(C(=O)c2ccccc2)C3)c2ccccc21` (stereo unspecified), the Potency was inconclusive: 50.1 µM [inhibitor, partial curve, poor fit].
For `Cc1cnn(CCC(=O)N2C[C@@H](CO)[C@H](c3ccncc3)C2)c1`, the “activity change, negative = cytotoxicity” value was inactive: -1.24%.
For `CNC(=O)[C@H]1C[C@]2(CCCCN(CCOC)C2=O)N(C(=O)c2cccc(OC)c2)[C@H]1c1ccccc1`, the Potency was inconclusive: 44.7 µM [inhibitor, partial curve, poor fit].
In the case of `Cc1nn(-c2ccccc2)c2c1C(C(C)C)N(C1CN(C(=O)c3ccccc3F)C1)C2=O` (stereo unspecified), the Potency is reported as inconclusive: 35.5 µM [inhibitor, partial curve, poor fit].
For `COc1ccc(Nc2ccnc(N3CCCC(C(=O)NCc4ccccc4)C3)n2)cc1` (stereo unspecified), the Potency was active: 35.5 µM.
With `C#CCNC(=O)c1nc(C(C)(C)C)c2ccccn12` the Potency was inconclusive: 39.8 µM [inhibitor, partial curve].
With `COc1ccc(C(=O)N2CCn3c(nn(-c4ccc([N+](=O)[O-])cc4)c3=O)C2)cc1` the Potency was inconclusive: 39.8 µM [inhibitor, partial curve].
For `COCCCNC(=O)c1cc(-c2ccc(Cl)cc2Cl)c2nncn2n1`, the Potency was inconclusive: 100 µM [inhibitor, partial curve, poor fit].
For `COCCc1noc(-c2ccccc2OC2CN(S(=O)(=O)C(C)C)C2)n1`, the “activity change, negative = cytotoxicity” value was inactive: 4.89%.
For `N#Cc1ccccc1S(=O)(=O)N[C@H]1CO[C@H]2[C@@H]1OC[C@H]2OC(=O)Nc1ccc(Oc2ccccc2)cc1`, the Potency was inconclusive: 50.1 µM [inhibitor, partial curve, poor fit].
In the case of `COCCNc1cc(-c2ccc(Cl)cc2)nc2c(C)noc12`, the Potency is reported as inconclusive: 20 µM [inhibitor, partial curve, poor fit].
With `CC(C)(Oc1nn(Cc2cccc(Cl)c2)c2ccccc12)C(=O)NCc1ccncc1` the Potency was active: 31.6 µM.
For `CCCN1C(=O)CCc2cc(NC(=O)c3ccc(C)cc3)ccc21`, the Potency was inconclusive: 44.7 µM [inhibitor, partial curve, poor fit].
For `COC(=O)N1CCN(C(=O)c2cccc(-c3ccccn3)c2)CC1`, the “activity change, negative = cytotoxicity” value was inactive: -1.58% [at 138 µM].
For `CN(C)c1ccc(CN2CCNc3cc(Nc4cccnc4)ncc3C2)cc1`, the Potency was inconclusive: 8.91 µM [inhibitor, full curve, poor fit].
For `O=C1NC(=NC2CCCC2)C2(CCN(Cc3cccnc3)CC2)N1c1cc(F)cc(F)c1`, the Potency was active: 31.6 µM.
With `Cc1cc(C)cc(-c2ccc(CN3CCCC(NC(=O)C4CCCC4)C3)cc2)c1` (stereo unspecified) the “activity change, negative = cytotoxicity” value was inactive: -19.2%.
In the case of `CN(CC(=O)N1CCCC(CCc2ccc(F)cc2)C1)C1CCNCC1` (stereo unspecified), the Potency is reported as inconclusive: 50.1 µM [inhibitor, partial curve, poor fit].
For `Cc1nnc2ccc(N3CCN(S(=O)(=O)c4cccs4)CC3)nn12`, the “activity change, negative = cytotoxicity” value was inactive: -21%.
In the case of `CNC(=O)c1cc(C2CC2)nc2onc(C3CCN(C(=O)c4ccccc4C)CC3)c12`, the “activity change, negative = cytotoxicity” value is reported as inactive: -21.7%.
For `COc1cccc(-c2ccc(CN3CCCC(NC(=O)c4ccccc4C)C3)cc2)c1` (stereo unspecified), the Potency was active: 39.8 µM.
